# Test results as given in PubChem BioAssay AID488969 (Vanderbilt High Throughput Screening Facility, 2010).
# The full ranking holds about 110,000 compounds; the median of “z-score” is about -0.1, and the highest 2% start at about 2. The list shows a part of the results.
# Molecular target: Metabotropic glutamate receptor 8 (Rattus norvegicus) (UniProt P70579)
# Assay: mGluR8 Gi/Go-coupled signaling modulation – cell-based, rat, thallium flux, HTS, primary screen (AID 488969)
# Conditions: HEK293 rat mGluR8, GIRK (G protein-gated inwardly rectifying potassium channel) thallium flux, FluoZin2; at 10 µM; stronger effect = higher value; submaximal glutamate (EC20) added with thallium
# UniProt P70579, sequence (P70579 whole entry, looked up): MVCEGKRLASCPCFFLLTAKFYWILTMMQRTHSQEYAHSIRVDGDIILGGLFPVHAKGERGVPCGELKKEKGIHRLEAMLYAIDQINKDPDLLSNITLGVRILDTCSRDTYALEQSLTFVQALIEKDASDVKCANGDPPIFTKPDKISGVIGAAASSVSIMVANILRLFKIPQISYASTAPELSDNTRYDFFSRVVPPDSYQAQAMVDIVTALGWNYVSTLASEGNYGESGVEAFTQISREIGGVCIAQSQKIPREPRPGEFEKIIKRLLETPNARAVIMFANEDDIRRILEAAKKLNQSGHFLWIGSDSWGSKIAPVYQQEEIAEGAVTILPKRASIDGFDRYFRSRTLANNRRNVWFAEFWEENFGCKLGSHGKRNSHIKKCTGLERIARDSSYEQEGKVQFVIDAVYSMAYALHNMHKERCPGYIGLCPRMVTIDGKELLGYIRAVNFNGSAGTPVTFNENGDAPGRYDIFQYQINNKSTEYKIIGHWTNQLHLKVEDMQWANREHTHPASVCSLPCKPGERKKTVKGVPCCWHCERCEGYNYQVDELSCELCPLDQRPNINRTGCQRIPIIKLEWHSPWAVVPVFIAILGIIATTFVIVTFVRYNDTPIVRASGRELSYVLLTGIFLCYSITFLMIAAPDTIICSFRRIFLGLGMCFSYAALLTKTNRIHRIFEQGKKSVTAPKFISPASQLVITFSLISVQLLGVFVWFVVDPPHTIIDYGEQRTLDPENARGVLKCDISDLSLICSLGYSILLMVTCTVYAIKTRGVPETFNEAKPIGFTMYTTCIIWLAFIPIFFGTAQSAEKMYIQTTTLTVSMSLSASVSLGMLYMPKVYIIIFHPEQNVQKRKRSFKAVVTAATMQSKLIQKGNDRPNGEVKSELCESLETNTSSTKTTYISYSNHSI
row,Compound,z-score
1,c1ccc(CSc2ncnc3c2sc2nc(N4CCOCC4)c4c(c23)CCCC4)cc1,-0.111
2,O=C1CC(Nc2ccc(N3CCOCC3)cc2)C(=O)N1c1cccc(C(F)(F)F)c1 (stereo unspecified),0.146
3,COc1cccc(NC(=S)Nc2cccnc2)c1,-0.0965
4,O=C(CSCCO)Nc1cccc(C(F)(F)F)c1,0.657
5,O=C(O)CN1CCNCC1,-0.134
6,COc1ccc(-c2nn(-c3ccccc3)cc2C(=O)Nc2nccs2)cc1OC,-0.662
7,CCOC(=O)c1cccc(P(=O)(C(C)(C)C)C(C)(C)C)c1,-0.208
8,COc1ccccc1NC(=O)Cn1ncc2c1-c1ccccc1OC2,0.762
9,CCOC(=O)c1[nH]c2ccc(Br)cc2c1NC(=O)CCN1CCN(C(=O)OCC)CC1,-0.779
10,O=C(NCc1ccco1)C1c2ccccc2Oc2ccccc21,-0.16
11,Cc1ccccc1NC(=S)NC(NC(=O)N(C)C)C(Cl)(Cl)Cl (stereo unspecified),-0.112
12,COC(=O)C1C(O)=CC(=O)CC1C (stereo unspecified),-0.249
13,Cc1ccc(C(=O)Nc2ncc(C)s2)o1,-0.322
14,O=C(CSc1nnc(-c2ccncc2)o1)Oc1ccccc1,-0.861
15,CCCCc1nc(Cl)c(C#N)c2c1CSC(C)(C)C2,0.743
16,O=C(CSC1=NCCS1)NC1CCCCC1,0.281
17,CN(C)S(=O)(=O)c1ccc(Nc2ccc(-c3ccc4c(c3)OCCO4)nn2)cc1,-0.02
18,Cn1c(C(=O)NCCCN2CCOCC2)cc2c(=O)n(C)c3ccccc3c21,0.0335
19,CC(C)CC(c1nnnn1Cc1ccccc1)N1CCC(C(N)=O)CC1 (stereo unspecified),0.257
20,Cc1cc(Oc2nc3c(C)cccn3c(=O)c2/C=C(\C#N)S(=O)(=O)c2ccc(Cl)cc2)ccc1Cl,0.0615
21,Cc1ccc(-c2cc(C(F)(F)F)n3nc(C(=O)N4CCCC4)cc3n2)cc1,0.899
22,Cc1cccc(Cn2cc(SCC(=O)Nc3nccs3)c3ccccc32)c1,-0.0215
23,CC(C)c1nc2ccc(C(=O)O)cc2[nH]1,-0.0251
24,CCOC(=O)c1c(NC(=O)c2cc3n(n2)C(C(F)(F)F)CC(c2cccs2)N3)sc(C)c1C (stereo unspecified),-0.183

row,Compound,z-score
1,CN(C)c1ccc(CNC(=O)c2ccc(CNc3c(N4CCCCC4)c(=O)c3=O)cc2)cc1,-0.328
2,CCOC(=O)/C=c1\s/c(=C\c2ccccc2C)c(=O)n1CC(=O)NCc1ccc2c(c1)OCO2,0.0429
3,O=C(CSc1ccccn1)N/N=C/C=C/c1ccccc1,-0.426
4,CCN(CC(=O)c1c(N)n(C)c(=O)n(C)c1=O)c1cccc2ccccc12,2.55
5,CCCn1c(SCC(=O)N2CCN(S(=O)(=O)c3ccc(Cl)cc3)CC2)n[nH]c1=O,-0.385
6,CCCNC(=O)CCC(NS(=O)(=O)c1ccc(C)cc1)C(=O)NCCC (stereo unspecified),1.66
7,Cc1ccc(N2CC(C(=O)Nc3ccc4c(c3)OCCO4)CC2=O)cc1 (stereo unspecified),0.958
8,Cc1ccc(-c2n[nH]c(=S)n2-c2ccccc2)cc1,0.376
9,CCC(C)C1C(C#N)=C(N)OC2=C1C(=O)CC(C)(C)C2 (stereo unspecified),-0.794
10,COc1ccccc1N(CC(=O)NCc1ccccc1)C(=O)CCC(=O)Nc1ccccn1,-1.03
11,CCOC(=O)c1ccc(N2N=C(C)/C(=C/C=C/c3ccco3)C2=O)cc1,0.523
12,COc1ccc(C(=O)c2c[nH]c3ccccc23)cc1,0.89
13,COc1ccc2c(c1)cc1n2CCN=C1NN,-0.286
14,Oc1ccc(-c2cn3c(n2)SCC3)cc1O,-0.229
15,CCN1CC(c2ccccc2)C(c2ccc(Cl)cc2)=N1 (stereo unspecified),-0.308
16,O=S(=O)(N/N=C/c1ccccc1OCc1ccc(Cl)cc1)c1ccccc1,-0.834
17,COc1ccc(CCNC(=O)CSc2nnc(CNC(=O)c3cccs3)o2)cc1OC,-0.316
18,O=C(c1cn(-c2ccccc2)nc1-c1cccs1)N1CCN(c2ccccc2)CC1,-0.0717
19,COc1ccc(OC)c(NC(=O)Cn2cc(C#N)c3cc(Br)ccc32)c1,-0.798
20,Cn1nc(-c2ccc(C(=O)NCC3CCCO3)cc2)c2ccccc2c1=O (stereo unspecified),-0.0748
21,CCC(c1nnc(SCC(=O)Nc2ccc(C(=O)Nc3ccccc3OC)cc2)o1)N(C)C (stereo unspecified),-0.538
22,CCOc1ccc(NC(=O)c2ccc(OC)cc2)cc1,-0.316
23,COc1cc2c(C(=O)N3CCN(c4cccc(Cl)c4)CC3)cn(CC(C)C)c(=O)c2cc1OC,-0.453
24,CCc1ccc(N(C(=O)C(F)(F)F)C(C(=O)NC2CCCCC2)c2ccncc2)cc1 (stereo unspecified),-0.196

row,Compound,z-score
1,CCOC(=O)c1c(C)[nH]c(C(=O)N/N=C/c2ccc(Br)cc2)c1C,-0.141
2,Fc1cccc(C[n+]2csc3ccccc32)c1,0.237
3,O=C(c1ccc(Cl)cc1)N1CCN(c2cc(=O)[nH]nc2-c2ccccc2)CC1,-0.597
4,COC(=O)Cc1ccc(NC(=O)c2cccs2)cc1,0.153
5,CSc1cccc(NC(=O)/C=C/c2ccccc2)c1,-0.139
6,CCOC(=O)c1c(/N=C/c2cc(C)ccc2O)sc2c1CCN(C)C2,0.21
7,CC1=C(C(=O)OCc2ccccc2)C(c2ccc(N3CCOCC3)cc2)NC(=O)N1 (stereo unspecified),0.643
8,O=C(O)CCCSCC(=O)Nc1ccccc1,0.633
9,Cc1ccccc1C(=O)N1CCN(c2ccc(NC(=O)CSc3ccc(Cl)cc3)cc2)CC1,0.0427
10,Cc1ccc(-c2ccc(SCC(=O)N3CCN(c4ccccc4)CC3)nn2)cc1,-0.105
11,C/C(Cc1ccccc1)=N\NC(=O)CNC(=O)c1ccccc1,-0.152
12,N#Cc1c(N)nc2c(c1-c1cccs1)CCCC2,-0.265
13,O=C(NCCCN1CCOCC1)c1cc2cc(Br)ccc2oc1=O,1.36
14,c1cnc2ccc(C(c3nnnn3C3CCCC3)N3CCSCC3)cc2c1 (stereo unspecified),-0.706
15,CN(C)NC(=S)Nc1ccc2nc(-c3ccccn3)c(-c3ccccn3)nc2c1,-0.15
16,Cc1ccc(-n2cnnn2)c(S(=O)(=O)N2CCOCC2)c1,0.000578
17,Cc1ccccc1C(=O)Nc1ccc(N2CCOCC2)nc1,-0.33
18,OCCCCCN=c1cc(-c2ccccc2)oc2ccc(Cl)cc12,-0.493
19,COc1ccc(C(C)C)cc1S(=O)(=O)n1cnc(C)c1,-0.0326
20,O=C(c1nn2c(C(F)(F)F)cc(-c3cccs3)nc2c1Br)N1CCCc2ccccc21,-0.256
21,NC1(N)OC(CN2C(=O)c3ccccc3C2=O)CS1 (stereo unspecified),0.67
22,Cc1ccc(C(=O)N(NC2=NS(=O)(=O)c3ccccc32)S(=O)(=O)c2ccc(C)cc2)cc1,0.0316
23,Cc1ccc(-c2nnc(Nc3ccc(CC(N)=O)cc3)c3ccccc23)cc1,0.299
